The other results are listed elsewhere or left out.
biological target: T1, MBP-FoxP1dN (Mus musculus, UniProt P58462 326-579); experiment: PD-seq (MBP pull-down with sequencing); 20 mM Tris-HCl pH 7.5, 100 mM NaCl, 1.5 mM MgCl2, 0.4 uM protein, 0.1 uM dsDNA library, 30 min, room temperature, amylose pull-down; high values mean tight binding; details: protein: recombinant; tags: His6-MBP; chain copies: 2; dsDNA, one strand shown
T1 sequence: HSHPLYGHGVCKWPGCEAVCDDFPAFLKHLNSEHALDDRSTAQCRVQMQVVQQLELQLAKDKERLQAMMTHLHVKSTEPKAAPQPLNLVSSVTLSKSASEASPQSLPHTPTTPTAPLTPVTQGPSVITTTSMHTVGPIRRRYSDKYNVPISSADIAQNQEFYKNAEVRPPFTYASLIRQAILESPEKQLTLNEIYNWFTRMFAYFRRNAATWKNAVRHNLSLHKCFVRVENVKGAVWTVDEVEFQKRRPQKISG
In short: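 A degenerate double-stranded DNA library, filled in with Klenow, was added at 0.1 µM to 0.4 µM His6-MBP-tagged mouse FoxP3 or FoxP1 fragment lacking the N-terminus, expressed in E. coli. Incubation lasted 30 min at room temperature in Tris pH 7.5 buffer with NaCl and MgCl2, after which complexes were collected on amylose resin, washed three times, digested with proteinase K to free the DNA, barcoded by PCR and sequenced by Illumina. Binding is the pooled-replicate reads-per-million enrichment of pull-down over input.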

Sequence	binding signal
GATGATTGTTCTCCCAGCTGATGAATTCCTCGTCTCGAGTAAACAAATTTTCCTAATCTTTCTGTTCAAGCGCCATCTAC	0.759 RPM ratio (pull-down/input)
GATGATTGTTCTCCCAGCTGATGAATTATCCATCTCGAGTAAACAAATTTTCCTAATCTTTCTGTTCAAGCGCCATCTAC	0.978 RPM ratio (pull-down/input)
GATGATTGTTCTCCCAGCTGATGAATTTATAGGTTCGAGTAAACAAATTTTCCTAATCTTTCTGTTCAAGCGCCATCTAC	0.975 RPM ratio (pull-down/input)
GATGATTGTTCTCCCAGCTGATGAATTGAAAATATCGAGTAAACAAATTTTCCTAATCTTTCTGTTCAAGCGCCATCTAC	1.26 RPM ratio (pull-down/input)
GATGATTGTTCTCCCAGCTGATGAATTTTTTACCTCGAGTAAACAAATTTTCCTAATCTTTCTGTTCAAGCGCCATCTAC	0.943 RPM ratio (pull-down/input)
GATGATTGTTCTCCCAGCTGATGAATTGCATTCTTCGAGTAAACAAATTTTCCTAATCTTTCTGTTCAAGCGCCATCTAC	1.61 RPM ratio (pull-down/input)
GATGATTGTTCTCCCAGCTGATGAATTTCGAACTTCGAGTAAACAAATTTTCCTAATCTTTCTGTTCAAGCGCCATCTAC	0.785 RPM ratio (pull-down/input)
GATGATTGTTCTCCCAGCTGATGAATTCAACTCCTCGAGTAAACAAATTTTCCTAATCTTTCTGTTCAAGCGCCATCTAC	0.73 RPM ratio (pull-down/input)
GATGATTGTTCTCCCAGCTGATGAATTCTGACCTTCGAGTAAACAAATTTTCCTAATCTTTCTGTTCAAGCGCCATCTAC	0.83 RPM ratio (pull-down/input)
GATGATTGTTCTCCCAGCTGATGAATTAGCGCGATCGAGTAAACAAATTTTCCTAATCTTTCTGTTCAAGCGCCATCTAC	0.894 RPM ratio (pull-down/input)
GATGATTGTTCTCCCAGCTGATGAATTAGGTGTTTCGAGTAAACAAATTTTCCTAATCTTTCTGTTCAAGCGCCATCTAC	1.09 RPM ratio (pull-down/input)
GATGATTGTTCTCCCAGCTGATGAATTGACGTCCTCGAGTAAACAAATTTTCCTAATCTTTCTGTTCAAGCGCCATCTAC	1.06 RPM ratio (pull-down/input)
GATGATTGTTCTCCCAGCTGATGAATTGGCCTGGTCGAGTAAACAAATTTTCCTAATCTTTCTGTTCAAGCGCCATCTAC	0.77 RPM ratio (pull-down/input)
GATGATTGTTCTCCCAGCTGATGAATTGCATCTCTCGAGTAAACAAATTTTCCTAATCTTTCTGTTCAAGCGCCATCTAC	1.54 RPM ratio (pull-down/input)
GATGATTGTTCTCCCAGCTGATGAATTAAAAATCTCGAGTAAACAAATTTTCCTAATCTTTCTGTTCAAGCGCCATCTAC	0.927 RPM ratio (pull-down/input)
GATGATTGTTCTCCCAGCTGATGAATTCCTTTGCTCGAGTAAACAAATTTTCCTAATCTTTCTGTTCAAGCGCCATCTAC	0.796 RPM ratio (pull-down/input)

Sequence	binding signal
GATGATTGTTCTCCCAGCTGATGAATTCTCATCCTCGAGTAAACAAATTTTCCTAATCTTTCTGTTCAAGCGCCATCTAC	0.81 RPM ratio (pull-down/input)
GATGATTGTTCTCCCAGCTGATGAATTTTGCGACTCGAGTAAACAAATTTTCCTAATCTTTCTGTTCAAGCGCCATCTAC	0.897 RPM ratio (pull-down/input)
GATGATTGTTCTCCCAGCTGATGAATTGAAGAGATCGAGTAAACAAATTTTCCTAATCTTTCTGTTCAAGCGCCATCTAC	0.804 RPM ratio (pull-down/input)
GATGATTGTTCTCCCAGCTGATGAATTAAATTCATCGAGTAAACAAATTTTCCTAATCTTTCTGTTCAAGCGCCATCTAC	0.922 RPM ratio (pull-down/input)
GATGATTGTTCTCCCAGCTGATGAATTAGGGACATCGAGTAAACAAATTTTCCTAATCTTTCTGTTCAAGCGCCATCTAC	1.04 RPM ratio (pull-down/input)
GATGATTGTTCTCCCAGCTGATGAATTCGTCCGGTCGAGTAAACAAATTTTCCTAATCTTTCTGTTCAAGCGCCATCTAC	0.701 RPM ratio (pull-down/input)
GATGATTGTTCTCCCAGCTGATGAATTTTATCCGTCGAGTAAACAAATTTTCCTAATCTTTCTGTTCAAGCGCCATCTAC	0.86 RPM ratio (pull-down/input)
GATGATTGTTCTCCCAGCTGATGAATTCATCTCATCGAGTAAACAAATTTTCCTAATCTTTCTGTTCAAGCGCCATCTAC	0.859 RPM ratio (pull-down/input)
GATGATTGTTCTCCCAGCTGATGAATTTGATCTTTCGAGTAAACAAATTTTCCTAATCTTTCTGTTCAAGCGCCATCTAC	0.84 RPM ratio (pull-down/input)
GATGATTGTTCTCCCAGCTGATGAATTACACTCTTCGAGTAAACAAATTTTCCTAATCTTTCTGTTCAAGCGCCATCTAC	1.25 RPM ratio (pull-down/input)
GATGATTGTTCTCCCAGCTGATGAATTATGCCTATCGAGTAAACAAATTTTCCTAATCTTTCTGTTCAAGCGCCATCTAC	1.04 RPM ratio (pull-down/input)
GATGATTGTTCTCCCAGCTGATGAATTGGTGCACTCGAGTAAACAAATTTTCCTAATCTTTCTGTTCAAGCGCCATCTAC	0.992 RPM ratio (pull-down/input)
GATGATTGTTCTCCCAGCTGATGAATTAGGCTTGTCGAGTAAACAAATTTTCCTAATCTTTCTGTTCAAGCGCCATCTAC	0.93 RPM ratio (pull-down/input)
GATGATTGTTCTCCCAGCTGATGAATTACAGCTATCGAGTAAACAAATTTTCCTAATCTTTCTGTTCAAGCGCCATCTAC	1.11 RPM ratio (pull-down/input)
GATGATTGTTCTCCCAGCTGATGAATTGCACGTTTCGAGTAAACAAATTTTCCTAATCTTTCTGTTCAAGCGCCATCTAC	1.23 RPM ratio (pull-down/input)

Source: paper PMC12820563, “FoxP3 forms a head-to-head dimer in vivo and stabilizes its multimerization on adjacent microsatellites”
